Assay results taken from the supplement of paper PMC4604168 (melanoma cell lines).
This is one part of the list. Many values rest on one well or one pass, so single values are uncertain.

Assays:
Experiment in all cases: cell count relative to DMSO control; melanoma cells; higher = more viable cells
Conditions in all cases: library dose: standard library concentration; 72 h
G361 = test system: G361
IPC-298 = test system: IPC-298
IST-MEL1 = test system: IST-MEL1
LB2518-MEL = test system: LB2518-MEL
LOXIMVI = test system: LOXIMVI
MEL-HO = test system: MEL-HO
MZ2-MEL = test system: MZ2-MEL
MeWo = test system: MeWo
RPMI7951 = test system: RPMI7951
RVH-421 = test system: RVH-421
SkMel28 = test system: SkMel28
SkMel2 = test system: SkMel2
SkMel30 = test system: SkMel30
SkMel5 = test system: SkMel5
UACC257 = test system: UACC257
UACC62 = test system: UACC62
WM115 = test system: WM115
WM1716 = test system: WM1716
WM1745 = test system: WM1745
WM3526 = test system: WM3526
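Note: cells treated in 1,536-well plates, then fixed and DAPI-stained, with nuclei counted from automated high-throughput microscope images.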

SMILES | cell count (G361) | cell count (IPC-298) | cell count (IST-MEL1) | cell count (LB2518-MEL) | cell count (LOXIMVI) | cell count (MEL-HO) | cell count (MZ2-MEL) | cell count (MeWo) | cell count (RPMI7951) | cell count (RVH-421) | cell count (SkMel28) | cell count (SkMel2) | cell count (SkMel30) | cell count (SkMel5) | cell count (UACC257) | cell count (UACC62) | cell count (WM115) | cell count (WM1716) | cell count (WM1745) | cell count (WM3526)
CC1(C)NC(=O)N(c2ccc([N+](=O)[O-])c(C(F)(F)F)c2)C1=O [nilutamide] + Cc1cc(SCc2sc(-c3ccc(C(F)(F)F)c(F)c3)nc2C)ccc1OCC(=O)O [GW0742] (first compound 5 µM, partner dose 10 µM) | 93.6% | 109% | 90.3% | 101% | 98.7% | 86% | 102% | 88.4% | 86.9% | 110% | 85.9% | 102% | 84.2% | 86% | 99.5% | 83.1% | 86% | 107% | 99.5% | 86.8%
C=CCNC1=C2C[C@@H](C)C[C@H](OC)[C@H](O)[C@@H](C)/C=C(\C)[C@H](OC(N)=O)[C@@H](OC)/C=C\C=C(/C)C(=O)NC(=CC1=O)C2=O [Tanespimycin] + C[As](C)SC[C@H](NC(=O)CC[C@H](N)C(=O)O)C(=O)NCC(=O)O [Darinaparsin] (first compound 0.01 µM, partner dose 2 µM) | 51.6% | 80.5% | 47.3% | 56.5% | 87.3% | 70.3% | 88.8% | 41.9% | 13.5% | 47.8% | 44.4% | 74.7% | 78.2% | 34.6% | 77% | 52.4% | 22.7% | 54.5% | 57.2% | 49.8%
CCCCCCCCCCCCCCCCCCOP(=O)([O-])OC1CC[N+](C)(C)CC1 [Perifosine] + C[As](C)SC[C@H](NC(=O)CC[C@H](N)C(=O)O)C(=O)NCC(=O)O [Darinaparsin] (first compound 2 µM, partner dose 2 µM) | 86.6% | 91.3% | 91.6% | 95.4% | 86.9% | 103% | 96.9% | 75.4% | 22.8% | 86.2% | 78.3% | 80.8% | 75.8% | 73.8% | 84.3% | 80.8% | 77.9% | 71.8% | 85.5% | 70.2%
CC1(C)CCC(c2ccc(Cl)cc2)=C(CN2CCN(c3ccc(C(=O)NS(=O)(=O)c4ccc(N[C@H](CCN5CCOCC5)CSc5ccccc5)c(S(=O)(=O)C(F)(F)F)c4)cc3)CC2)C1 + N.N.[Cl][Pt][Cl] [cisplatin] (first compound 2 µM, partner dose 8 µM) | 69.2% | 85.2% | 73.9% | 67.9% | 73.9% | 64.5% | 73% | 66.6% | 23.6% | 52.6% | 77.9% | 61.8% | 57.8% | 61.6% | 40.9% | 45.4% | 70.3% | 49.6% | 3.62% | 66.6%
Cc1cc(SCc2sc(-c3ccc(C(F)(F)F)c(F)c3)nc2C)ccc1OCC(=O)O + Oc1nc(-c2ccc(C(F)(F)F)cc2)nc2c1CSCC2 [XAV939] (first compound 10 µM, partner dose 10 µM) | 76.1% | 87.6% | 83.2% | 78% | 79.2% | 81.5% | 95.1% | 76.8% | 87% | 81.1% | 70.6% | 93.2% | 98.2% | 89.9% | 73.4% | 84.2% | 74.9% | 91.3% | 62.8% | 94.8%
O=S(=O)(c1ccccc1)N(CC(F)(F)F)c1ccc(C(O)(C(F)(F)F)C(F)(F)F)cc1 + C/C(O)=C(\C#N)C(=O)Nc1cc(Br)ccc1Br [LFM-A13] (first compound 7 µM, partner dose 10 µM) | 73.5% | 89.6% | 93.1% | 113% | 104% | 85.2% | 106% | 85.6% | 84.1% | 72% | 71.3% | 95.2% | 80.7% | 77% | 90.8% | 78% | 88.3% | 112% | 102% | 77.8%
Cc1ccc(NC(=O)c2cccc(N(C)C)c2)cc1NC(=O)c1ccc(O)cc1 + Cc1cc(SCc2sc(-c3ccc(C(F)(F)F)c(F)c3)nc2C)ccc1OCC(=O)O [GW0742] (first compound 10 µM, partner dose 10 µM) | 84.4% | 80.8% | 84% | 84.3% | 77.9% | 77.2% | 72.7% | 78.6% | 76.5% | 117% | 88.4% | 90.9% | 93.4% | 76.3% | 83.4% | 101% | 91.2% | 102% | 70.7% | 71.1%
NCC(=O)Nc1ccc(-n2nc(C(F)(F)F)cc2-c2ccc3c(ccc4ccccc43)c2)cc1 + Cc1cc(SCc2sc(-c3ccc(C(F)(F)F)c(F)c3)nc2C)ccc1OCC(=O)O [GW0742] (first compound 5 µM, partner dose 10 µM) | 57.9% | 50.6% | 82.1% | 8.09% | 66.3% | 71.7% | 67.7% | 84.8% | 70.9% | 76.2% | 2.87% | 5.39% | 18.9% | 60.4% | 73.7% | 64.9% | 92.2% | 72.4% | 67.7% | 40.1%
O=C(Nc1ccccc1)c1cc([N+](=O)[O-])ccc1Cl + O=C(Oc1ccc([N+](=O)[O-])cc1)N1CCC(C(O)(c2ccc3c(c2)OCO3)c2ccc3c(c2)OCO3)CC1 [JZL184] (first compound 10 µM, partner dose 5 µM) | 95.6% | 121% | 124% | 89.1% | 105% | 95.9% | 82.2% | 86.1% | 89.1% | 104% | 59.8% | 91.3% | 100% | 87.4% | 76.8% | 75.4% | 85.6% | 100% | 83.7% | 86.3%
